The assay deals with NCI-H1341 complex spheroids, percent test/control. In words: Anticancer human tumor NCI-H1341 cell line growth inhibition [AhR].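 For all read-outs here: spheroids exposed to agents for seven days before readout.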 The following applies: for IC50: compound alone; for viability, T/C: stronger effect = lower value. An excerpt: Multicellular complex tumor spheroid response to aryl hydrocarbon receptor antagonists in combination with a variety of drugs and investigational agents in selected tumor cell lines
The current study was undertaken to assess response to aryl hydrocarbon receptor antagonists in combination with standard-of-care drugs and investigational agents in solid tumor complex spheroid models. Complex spheroids include a stromal component modeled by human endothelial cells (HUVEC) and fibroblasts modeled by human mesenchymal stem cells (MSCs). The concentration ranges selected for each drug and investigational agent were based upon clinically achievable concentrations if the clinical Cmax of the agent was known.
Compounds. The drugs and investigational agents: BAY 2416964 (NSC825713), GNF351 (NSC835774), CH-223191 (NSC835775), CPI-455 (NSC825282), aza-TdCyd (NSC777586), decitabine (NSC127716), belinostat (NSC758774), entinostat (NSC756642), pevonedistat (NSC761192), tazemetostat (NSC777109), talazoparib (NSC765396), olaparib (NSC753686), selinexor (NSC780203), nedisertib (M3814, NSC802822), bortezomib (NSC756655), venetoclax (NSC766270), doxorubicin (NSC123127), elimusertib (BAY189344, NSC800525), ceralasertib (AZD6738, NSC777638), TAK-243 (NSC785004), alisertib (NSC759677), etoposide (NSC141540), topotecan (NSC609699), eribulin (NSC707389), gemcitabine (NSC613327), carboplatin (NSC241240), cisplatin (NSC119875), and SN-38 (NSC673596) were obtained from the National Cancer Institute (NCI) Developmental Therapeutics Program Chemical Repository (32). The FDA-approved anticancer drug set is available from the Developmental Therapeutics Program at https://dtp.cancer.gov/organization/dscb/obtaining/available plates.htm. […] The stock solutions were prepared in dimethyl sulfoxide (DMSO, Sigma-Aldrich, St. Louis, MO, cat. D2650), except for the platinum compounds which were prepared in saline (Quality Biological, Gaithersburg, MD, cat. 114-055-101), at 800-fold the tested concentration and stored at -70 degrees C prior to their use. All drugs and investigational agents were tested over a range starting from a high concentration at or near the clinical Cmax and decreasing in half-log increments. If the clinical Cmax for an agent had not been determined, the highest concentration tested was 10 microM (Table 1).
Cell Culture. All cells were maintained in an incubator at 37 degrees C and 5% CO2 with 95% humidity. The PDC lines were cultured according to standard operating procedures established by the NCI PDMR (https://pdmr.cancer.gov). Briefly, all PDCs were thawed and cultured in Matrigel-coated flasks prepared with a working solution of 1X Ham's F-12 nutrient mix, without supplementation (Invitrogen, Waltham, MA, cat. 11765054), 100 U/mL penicillin-streptomycin (Invitrogen, cat. 15140122), and 2.5% Matrigel (Corning Inc., Corning, NY, cat. 354248) for the first three passages. All PDCs were cultured in complete DMEM/F-12 media containing advanced DMEM/F-12 (Invitrogen, cat. 12634028), 4.9% defined fetal bovine serum, heat inactivated (HyClone Laboratories Inc., Logan, UT, cat. SH30070.03HI), 389 ng/mL hydrocortisone (Sigma-Aldrich, cat. H4001), 9.7 ng/mL human EGF recombinant protein (Invitrogen, cat. PHG0313), 23.4 microg/mL adenine (Sigma-Aldrich, cat. A2786), 97.3 U/mL penicillin-streptomycin (Invitrogen, cat. 15140122), 1.9 mM L-glutamine (Invitrogen, cat. 25030081), and 9.7 microM Y-27632 dihydrochloride (Tocris Bioscience, Bristol, United Kingdom, cat. 1254). The PDCs were cultured in complete DMEM/F12 media without 10 microM Y-27632 dihydrochloride for at least two passages prior to the screen. The established cell lines NCI-H1341 and […] were cultured in DMEM/F-12, HEPES (Invitrogen, cat. 11330032), 5% defined fetal bovine serum (HyClone Laboratories Inc., cat. SH30070.03), ITS premix universal culture supplement [insulin (5 microg/mL), transferrin (5 microg/mL), and selenious acid (5 ng/mL)] […]

Certain results were filed several times, with different values. They are shown here; other results are not. There may be further records. Values given together are repeats across runs, samples, wells, individuals or studies. Signs of the kind (2×) say how often a value occurs here.

With `Cc1ccccc1N=Nc1ccc(NC(=O)c2ccnn2C)c(C)c1`, the IC50 (NCI-H1341 complex spheroids, drug combinations, percent test/control, run of 07/26/2022) is given as > 10 µM, 8.98 µM, 6.79 µM, 9.82 µM, 9.97 µM. Also, the viability, T/C was 87.3, 89.1 (2×), 93.1, 84.7, 115, 97.7, 86.7, 92.6 (2×), 99.6, 116, 107, 89.4, 88.8, 92.1, 87.9, 85.6, 84.4, 94.5% (compound alone 0.1 µM); 117, 106 (3×), 93.6, 90.9, 98.9, 110, 79.4, 75.5, 78.5, 87.8, 114, 86.3, 83, 88.2, 88.5, 103, 98.6, 89.2% (compound alone 0.316 µM); 88.2, 84.5, 100, 90.5, 95.9, 81, 83.9, 97.1, 91.2, 96.7, 97.8, 89.3, 106, 87.3, 89.5, 92.4, 93.9, 86, 69.4, 91.9% (compound alone 1 µM); 75.9, 71.2, 69.7, 74.7, 75.2, 72.1, 73.3, 58.1, 79.5, 84.4, 83.2, 79.1, 78.1, 72, 67.3, 73.7, 74.9, 73.6, 70.4, 68.5% (compound alone 3.16 µM).
For `Cc1cncc(-c2nc(NCCc3c[nH]c4ccccc34)c3ncn(C(C)C)c3n2)c1`, the IC50 (NCI-H1341 complex spheroids, drug combinations, percent test/control, run of 07/18/2022) is 6.26 µM, 5.93 µM, 4.87 µM, 6.12 µM, > 10 µM, 4.89 µM, 5.27 µM, 4.77 µM, 4.88 µM, 4.91 µM, 7.6 µM, 6.93 µM, 8.48 µM, 6.65 µM, 7.65 µM, 4.08 µM, 6.91 µM, 6.58 µM, 4.78 µM, 2.13 µM, 4.7 µM, 4.82 µM, 3.88 µM. Besides, the viability, T/C was 82.8, 79.4, 89.6, 88.6, 91.2, 91.5, 89.7 (2×), 88.5, 67.9, 83.8, 85.7, 99.1, 111, 87.7, 85, 71.9, 90.3, 89, 73.6% (compound alone 0.1 µM); 78.4, 80.4, 84.6, 79.5, 82.1, 86.1 (2×), 85.7, 79.7, 86.5, 80.2, 68.4, 78.8, 105, 82.8, 81, 87.4, 73.5, 77, 88% (compound alone 0.316 µM); 85.8, 87.5, 94.7, 82.6, 76.2, 75.2, 83.3, 80.1, 86.6, 83.6, 81.3, 68.8, 83, 67, 85.9, 84, 88.8, 88, 84.4% (compound alone 1 µM); 78.8 (2×), 75.2, 67.8, 81.6, 82.5, 69.8, 73.2, 66.6, 67.6, 68.3, 79.1, 80.1, 80.6, 77.5, 70.7, 72.2, 86.1, 54.1, 76.8% (compound alone 3.16 µM); 30, 28.9, 20.3 (2×), 26.5, 58.6, 23.1, 21.5, 20.8, 20.9, 41, 45.1, 37.2 (2×), 45.5, 38.8, 43, 34.4, 35.6, 33.4, 15% (compound alone 10 µM).
Take `COc1cc(C2c3cc4c(cc3C(OC3OC5COC(C)OC5C(O)C3O)C3COC(=O)C23)OCO4)cc(OC)c1O` (stereo unspecified): the IC50 is 1.53 µM, 836 nM, > 10 µM.
`CC(CO)NC(=O)c1cc(-c2ccc(Cl)cc2)nn(-c2cnn(C)c2)c1=O` (stereo unspecified): the viability, T/C is, setting by setting: (compound alone 0.1 µM) 97.8, 91, 86.1, 87.1, 103, 95.2, 89.1, 83.2, 84.6, 92.4, 93.2, 92.6, 96.2, 72.4, 101, 92.7, 94.8, 86, 92.9, 90.9%; (compound alone 0.316 µM) 81.3, 88.1, 83.6, 83.9, 96.9, 92.5, 82.8, 77.9 (2×), 85.2, 95.7, 91.6, 75.4, 90.6, 81.5, 102, 90.9, 80.5, 92.2, 80.2, 87.1%; (compound alone 1 µM) 83.3, 70.7, 91 (2×), 87.1 (2×), 110, 69, 94.8, 79.8, 100, 77.7, 94.2, 108, 96.1, 63.6, 88.6, 80.8, 89.4, 81, 74.7%; (compound alone 3.16 µM) 88, 77.7, 93.4, 96.7, 89.9, 91.3, 72.5, 72.1, 78.4, 78.9, 87.7, 86.4, 82.4, 68.8, 93.5, 92.8, 84, 82.8, 74.4%.

(Values after PubChem BioAssay AID1919014 (Molecular Pharmacology Branch, DTP, NCI, 2023).)
